The values below come from PMC5892938.

This is one part of the list. At the low end of the ranking, values are background and their order means little.

The assay deals with GST-SBP-SLBP (stem-loop binding protein) (UniProt Q14493). Description: targeted RNA Bind-n-Seq.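 Note: DESeq read counts versus GST-SBP nonspecific binding control pulldown.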 Particulars: RBNS binding buffer: 25 mM Tris pH 7.5, 150 mM KCl, 3 mM MgCl2, 0.1% Tween, 0.5 mg/mL BSA, 1 mM DTT; 27 nM protein, 750 pM RNA pool; temperature not stated; high values mean tight binding.
Turning to “GGUCACGUCUCAAUCAACUCAUGUCCAGGAGUUUUCUCCUGCUUAUUCAACAGCUCGCAGUCAAG”, the binding signal (log2 fold change) was -0.128.
In the case of “GGUCACGUCUCAAUCAACUCUCACGAGGGGGGGAAAACCCCUUUACCCUCUUUCUCAACAGCUCGCAGUCAAG” it was -0.136.
Then “GGUCACGUCUCAAUCAACUCAUGUCCAGGAGUUUACUCCUGUUUAUUCAACAGCUCGCAGUCAAG”, with -0.221; and “GGUCACGUCUCAAUCAACUCAAUUCCCAGGGAAAUCCCUGGCUUUCUCAACAGCUCGCAGUCAAG”, with -0.144; and “GGUCACGUCUCAAUCAACUCAAUCUCAGGAGUUUCCUCCUGCUAAGUCAACAGCUCGCAGUCAAG”, with -0.111.
On to “GGUCACGUCUCAAUCAACUCAACGCCAGGAGUUUCCUCCUGUAUAUUCAACAGCUCGCAGUCAAG”, for which the binding signal (log2 fold change) amounted to 0.0543.
Take “GGUCACGUCUCAAUCAACUCAUCCUCCAGGGAAAACCCUGGCAUAUUCAACAGCUCGCAGUCAAG”: the binding signal (log2 fold change) worked out at 0.384.
With “GGUCACGUCUCAAUCAACUCUUCUCCAGGAGUUUCCUCCUGUAAUUUCAACAGCUCGCAGUCAAG”, the binding signal (log2 fold change) turned out to be 0.109.
Then “GGUCACGUCUCAAUCAACUCAAUCUCCAGGGAAACCCCUGGCAAUGUCAACAGCUCGCAGUCAAG”, with 0.187.
Consider “GGUCACGUCUCAAUCAACUCAAUUUCAGGAGUUUCCUCCUGUUAAUUCAACAGCUCGCAGUCAAG”, for which the binding signal (log2 fold change) was -0.0542.
On to “GGUCACGUCUCAAUCAACUCUUUUCCCAGGGAAAGCCCUGGUUUACUCAACAGCUCGCAGUCAAG”, for which the binding signal (log2 fold change) is 0.106.
Turning to “GGUCACGUCUCAAUCAACUCUUCGGAGGGGGGGAAAACCCCUUUACCCUCAUAUUCAACAGCUCGCAGUCAAG”, the binding signal (log2 fold change) was -0.196.
Then “GGUCACGUCUCAAUCAACUCAUUCUCAGGAGUUUCCUCCUGCAUAUUCAACAGCUCGCAGUCAAG”, with 0.0388; and “GGUCACGUCUCAAUCAACUCAAGUCCAGGAGUUUCCUCCUGUAUAUUCAACAGCUCGCAGUCAAG”, with 0.0721.
Then “GGUCACGUCUCAAUCAACUCAUCCCCAGGAGUUUACUCCUGCAAUCUCAACAGCUCGCAGUCAAG”, with -0.112.
For “GGUCACGUCUCAAUCAACUCCUCGGAGGGGGGGAAAACCCCUUUACCCUCAAUAUCAACAGCUCGCAGUCAAG”, the binding signal (log2 fold change) worked out at 0.186.
Then “GGUCACGUCUCAAUCAACUCAAUUCCCAGGGAAACCCCUGGUAUAUUCAACAGCUCGCAGUCAAG”, with 0.0194; and “GGUCACGUCUCAAUCAACUCUUUUUCAGGAGUUUUCUCCUGUUUAUUCAACAGCUCGCAGUCAAG”, with 0.153; and “GGUCACGUCUCAAUCAACUCAUUCUCAGGAGUUUGCUCCUGCAAUCUCAACAGCUCGCAGUCAAG”, with 0.0622.
Turning to “GGUCACGUCUCAAUCAACUCAUUCCCCAGGGAAAUCCCUGGUUAUCUCAACAGCUCGCAGUCAAG”, the binding signal (log2 fold change) amounted to 0.181.
Then “GGUCACGUCUCAAUCAACUCUUUCUCCAGGGAAAACCCUGGCAAUCUCAACAGCUCGCAGUCAAG”, with 0.103.
